43 compounds from ChEMBL document CHEMBL4888484, “Replenishing the malaria drug discovery pipeline: Screening and hit evaluation of the MMV Hit Generation Library 1 (HGL1) against asexual blood stage Plasmodium falciparum ,using a nano luciferase reporter read-out” (2022) can be followed below.

The structures appear in SMILES notation. Screen size: about 150,000 compounds; about 540 (0.36%) showed an effect of 50% or more. Some of the results follow.

This test deals with Plasmodium falciparum. The test is described as follows: Primary screen in NF54 nanoGlo assay, in single point, at 2uM, 72h; a lower Z score goes with more inhibition. The format is functional, Erythrocyte. The note with it: timepoint 72 hour.
What is called % Inhibition is the relative decrease from the control value, in per cent. Turning to `Cc1cccc(CN2CCC[C@@]3(CCN(C(=O)c4ccnn4C)C3)C2)c1`, the “% Inhibition” value was -5% and the Z score was 0.9.

Take `COc1cc([C@@H](NC(=O)c2ccc(-n3cnnn3)cc2)C(=O)Nc2c(C)cccc2C)ccc1O`: the “% Inhibition” value is recorded as -14% and the Z score is reported as 1.87.

For `O=C(NCc1ccnc(-c2ccsc2)c1)Nc1cccs1`, the “% Inhibition” value was 2% and the Z score is recorded as -0.22.

As to `c1ccc(-n2ncc(CN3CCC4(CC3)OCCO4)n2)cc1`, the “% Inhibition” value is reported as -8% and the Z score is 1.04.

In the case of `N#Cc1cccc(-c2c[nH]c(CNC(=O)c3ccn(-c4cccc(F)c4)n3)n2)c1`, the “% Inhibition” value is on record as 10% and the Z score was -1.4.

Turning to `CC(C)(C)C(=O)NOCc1ccccn1`, the “% Inhibition” value is given as -11% and the Z score turned out to be 1.67.

Turning to `CC1CN(c2ccccc2)CCN1C(=O)CC1(c2ccccc2)CC(=O)N(Cc2cccnc2)C1=O` (stereo unspecified), the “% Inhibition” value is listed as -3% and the Z score was determined as 0.33.

As for `CCc1nnc(CN(C)C(=O)CCn2cnc3ccccc3c2=O)o1`, the “% Inhibition” value is recorded as -3% and the Z score is reported as 0.36.

Turning to `CCN1C(=O)c2cc(C(=O)NCc3cccc(Br)c3)nn2C[C@@]1(C)C(=O)NC1CCCC1`, the “% Inhibition” value is given as 18% and the Z score is -2.15.

Take `N#CC1(CC(=O)N2Cc3ccccc3-c3ccccc32)CC1`: the “% Inhibition” value is -9% and the Z score came out at 1.1.

Consider `O=S(=O)(CCN1CCC[C@@H]1CO)c1ccccc1`, for which the “% Inhibition” value was -14% and the Z score is on record as 2.01.

On to `CCc1nc(C)c(CNCc2cccc(CO)c2)[nH]1`, for which the “% Inhibition” value is on record as 0% and the Z score turned out to be 0.01.

As to `CCO[C@@H](C)c1noc(CN2CCc3cccc(C)c32)n1`, the “% Inhibition” value was -6% and the Z score was 0.96.

With `O=C(NCCOC1CCCCCC1)[C@@H]1CCCc2c(O)cccc21`, the “% Inhibition” value was 0% and the Z score worked out at 0.

In the case of `CC(C)(C)n1nc2nc(NCCc3ccccc3)nc(-c3ccccc3)c2c1N`, the “% Inhibition” value is -6% and the Z score is 0.86.

For `CCN(Cc1ccncc1)C1CN(S(=O)(=O)c2ccccc2)C1`, the “% Inhibition” value is -4% and the Z score came to 0.73.

As to `CC(C)C[C@H](CO)NC(=O)c1cccn1C`, the “% Inhibition” value is recorded as -2% and the Z score was determined as 0.28.

On to `Nc1cncc(-c2n[nH]c3cccc(Cl)c23)c1`, for which the “% Inhibition” value was -20% and the Z score is given as 1.94.

As for `N#Cc1cccc(CNc2nnc3n2CCCC3)c1`, the “% Inhibition” value was -12% and the Z score is recorded as 2.3.

Regarding `CCCC(O)(CCC)CC(=O)N1CC[C@]2(CCOC2)C1`, the “% Inhibition” value is listed as -2% and the Z score was 0.21.

On to `CCc1cnc(C)nc1N1CCOc2ccccc2C1`, for which the “% Inhibition” value is recorded as -9% and the Z score is listed as 1.44.

`Cc1cc(C2(NC(=O)Nc3cc(-n4cccn4)ccc3C)CCOCC2)on1`: the “% Inhibition” value is -9% and the Z score is reported as 1.6.

Regarding `CCOC(=O)c1csc([C@@H]2CCCN2Cc2ncc[nH]2)n1`, the “% Inhibition” value is listed as -5% and the Z score stood at 0.73.

Regarding `CCCn1cc(NC(=O)NCc2nnc3ccccn23)nn1`, the “% Inhibition” value came out at 5% and the Z score is -0.68.

Regarding `c1cncc(-c2nc3nccc(-c4cccnc4)n3n2)c1`, the “% Inhibition” value is given as -9% and the Z score is recorded as 1.15.

For `COCCN(Cc1c[nH]nc1-c1ccc(F)cc1)C[C@H]1CCCO1`, the “% Inhibition” value was -14% and the Z score is given as 1.97.

Turning to `Nc1ccc([C@H]2CCCc3nonc32)c2nonc12`, the “% Inhibition” value is listed as 4% and the Z score is recorded as -0.5.

Take `CNC(=O)c1ccc(CN[C@H]2CCCN(c3ccc(C#N)cc3F)C2)cc1`: the “% Inhibition” value was 1% and the Z score is on record as -0.15.

Regarding `CO[C@@](F)(C(=O)NCc1ccco1)C(F)(F)F`, the “% Inhibition” value is -17% and the Z score is 3.24.

Regarding `Cc1ccccc1C(=O)NCc1nc(C(=O)N2CCCC2)c(C)o1`, the “% Inhibition” value is on record as -10% and the Z score is on record as 1.31.

As to `Nc1nc2c(c(NC3CC3)n1)CCN(C(=O)c1ncoc1C1CC1)CC2`, the “% Inhibition” value amounted to 4% and the Z score is on record as -0.71.

Turning to `CCc1ccc(CNCc2c(C(=O)N3CCCCCCC3)nc3ccc(Cl)cn23)nc1`, the “% Inhibition” value was -15% and the Z score is 1.59.

Take `CCOc1ccc(S(=O)(=O)Nc2ccccc2C(=O)Nc2c(C)n(C)n(-c3ccccc3)c2=O)cc1`: the “% Inhibition” value is given as -3% and the Z score amounted to 0.36.

Turning to `CCC(=O)N1CCc2c(C(=O)NCc3ccc(OC(C)C)cc3)cccc21`, the “% Inhibition” value is given as -4% and the Z score is given as 0.46.

Regarding `COc1cccc(CCn2ccnc2-c2cc3ccc(F)cc3[nH]c2=O)c1`, the “% Inhibition” value is given as -2% and the Z score turned out to be 0.26.

Turning to `Cc1cccc(Cl)c1S(=O)(=O)Nc1cc2n(n1)CCCC2`, the “% Inhibition” value was 1% and the Z score is reported as -0.14.

With `C=CCCS(=O)(=O)Nc1cccc(C)c1C(C)=O`, the “% Inhibition” value is reported as 5% and the Z score was -0.97.

As to `Cc1ccc([C@@H](O)CNS(=O)(=O)c2c(C)noc2C)o1`, the “% Inhibition” value was -21% and the Z score is reported as 3.63.

As to `COc1cc(C#N)cc(Br)c1OC(C)C`, the “% Inhibition” value is 8% and the Z score is recorded as -0.86.

Consider `O=C(NCC1(O)CCOCC1)c1ccc(Br)o1`, for which the “% Inhibition” value came out at 4% and the Z score is given as -0.55.

For the compound `Cc1nc2cc(-c3ccc(NS(C)(=O)=O)cc3)ccc2o1`, the “% Inhibition” value is -9% and the Z score turned out to be 1.04.

Regarding `C[C@@H](COCC(F)(F)F)NC(=O)c1cc(Cl)sc1S(N)(=O)=O`, the “% Inhibition” value is on record as -26% and the Z score is 3.03.

In the case of `CC(C)(C)NC(=O)NCc1cccnc1-c1cccnc1`, the “% Inhibition” value is -5% and the Z score turned out to be 0.75.
